From a compilation of properties of binary mixtures (doi:10.1016/j.fluid.2015.05.023)
The densities may have been worked out from excess volumes.

Assay: xn = mol fraction of the nth substance listed
Settings: 100 kPa

CCCCCCCCCCCn1cc[n+](C)c1.O=S(=O)([N-]S(=O)(=O)C(F)(F)F)C(F)(F)F + O
x2 = 0.1567
Settings | mass density [kg/m3]
298.15 K | 1257.7
303.15 K | 1253.4
308.15 K | 1249.1
313.15 K | 1244.8
318.15 K | 1240.5
323.15 K | 1236.2
328.15 K | 1232
333.15 K | 1227.7
343.15 K | 1219.3
348.15 K | 1215.1
353.15 K | 1210.9
358.15 K | 1206.8
363.15 K | 1202.7

CCCCCCCCCn1cc[n+](C)c1.O=S(=O)([N-]S(=O)(=O)C(F)(F)F)C(F)(F)F + O
x2 = 0.1736
Settings | mass density [kg/m3]
303.15 K | 1289.2
313.15 K | 1280.4
328.15 K | 1267.3
333.15 K | 1263
338.15 K | 1258.7
343.15 K | 1254.4
348.15 K | 1250.1
353.15 K | 1245.9

CCCCCCCCn1cc[n+](CCCCCCCC)c1.O=S(=O)([N-]S(=O)(=O)C(F)(F)F)C(F)(F)F + O
x2 = 0.1246
Settings | mass density [kg/m3]
298.15 K | 1191.7
313.15 K | 1179.5
318.15 K | 1175.4
323.15 K | 1171.4
328.15 K | 1167.3
333.15 K | 1163.3
338.15 K | 1159.3
343.15 K | 1155.3
348.15 K | 1151.3
353.15 K | 1147.3
363.15 K | 1139.5

CCCCCCC[n+]1ccn(C)c1.O=S(=O)([N-]S(=O)(=O)C(F)(F)F)C(F)(F)F + O
x2 = 0.1971
Settings | mass density [kg/m3]
298.15 K | 1337
303.15 K | 1332.4
313.15 K | 1323.3
328.15 K | 1309.8
333.15 K | 1305.3
338.15 K | 1300.9
343.15 K | 1296.5
348.15 K | 1292.1
353.15 K | 1287.7
363.15 K | 1279

CCCCCCCn1cc[n+](CCCCCCC)c1.O=S(=O)([N-]S(=O)(=O)C(F)(F)F)C(F)(F)F + O
x2 = 0.1365
Settings | mass density [kg/m3]
298.15 K | 1222.8
303.15 K | 1218.6
308.15 K | 1214.5
313.15 K | 1210.3
318.15 K | 1206.1
323.15 K | 1202
328.15 K | 1197.8
333.15 K | 1193.7
338.15 K | 1189.6
343.15 K | 1185.5
348.15 K | 1181.5
353.15 K | 1177.4
358.15 K | 1173.4
363.15 K | 1169.4

CCCCCCn1cc[n+](CCCCCC)c1.O=S(=O)([N-]S(=O)(=O)C(F)(F)F)C(F)(F)F + O
x2 = 0.1489
Settings | mass density [kg/m3]
298.15 K | 1252.5
308.15 K | 1243.9
313.15 K | 1239.6
318.15 K | 1235.3
323.15 K | 1231
333.15 K | 1222.6
338.15 K | 1218.4
343.15 K | 1214.2
348.15 K | 1210
353.15 K | 1205.9
358.15 K | 1201.7
363.15 K | 1197.7

CCCCCn1cc[n+](C)c1.O=S(=O)([N-]S(=O)(=O)C(F)(F)F)C(F)(F)F + O
x2 = 0.2211
Settings | mass density [kg/m3]
298.15 K | 1396.6
303.15 K | 1391.7
308.15 K | 1386.8
323.15 K | 1372.4
328.15 K | 1367.7
333.15 K | 1363
338.15 K | 1358.1
343.15 K | 1353.4
348.15 K | 1348.7
353.15 K | 1344
358.15 K | 1339.2
363.15 K | 1334.6

CCCCCn1cc[n+](CCCCC)c1.O=S(=O)([N-]S(=O)(=O)C(F)(F)F)C(F)(F)F + O
x2 = 0.1575
Settings | mass density [kg/m3]
298.15 K | 1290
303.15 K | 1285.6
308.15 K | 1281.1
318.15 K | 1272.3
323.15 K | 1267.9
328.15 K | 1263.6
333.15 K | 1259.2
343.15 K | 1250.6
348.15 K | 1246.4
353.15 K | 1242.1
363.15 K | 1233.7

CCCC[n+]1ccn(C)c1.O=S(=O)([N-]S(=O)(=O)C(F)(F)F)C(F)(F)F + O
x2 = 0.257
Settings | mass density [kg/m3]
298.15 K | 1428.1
303.15 K | 1423.2
308.15 K | 1418.3
313.15 K | 1413.4
318.15 K | 1408.5
328.15 K | 1398.8
338.15 K | 1389.2
348.15 K | 1379.7
358.15 K | 1370.3
363.15 K | 1365.5

CCCCn1cc[n+](CCCC)c1.O=S(=O)([N-]S(=O)(=O)C(F)(F)F)C(F)(F)F + O
x2 = 0.1843
Settings | mass density [kg/m3]
298.15 K | 1337.3
303.15 K | 1332.7
313.15 K | 1323.6
318.15 K | 1319
323.15 K | 1314.5
328.15 K | 1310
333.15 K | 1305.5
338.15 K | 1301
343.15 K | 1296.6
348.15 K | 1292.2
353.15 K | 1287.8

CCCn1cc[n+](C)c1.O=S(=O)([N-]S(=O)(=O)C(F)(F)F)C(F)(F)F + O
x2 = 0.272
Settings | mass density [kg/m3]
298.15 K | 1464.3
303.15 K | 1459.1
313.15 K | 1448.9
328.15 K | 1433.8
333.15 K | 1428.8
338.15 K | 1423.8
348.15 K | 1413.7
358.15 K | 1404
363.15 K | 1399.2

CCCn1cc[n+](CCC)c1.O=S(=O)([N-]S(=O)(=O)C(F)(F)F)C(F)(F)F + O
x2 = 0.2232
Settings | mass density [kg/m3]
298.15 K | 1391.3
308.15 K | 1381.6
318.15 K | 1372
323.15 K | 1367.2
328.15 K | 1362.5
338.15 K | 1353
343.15 K | 1348.4
353.15 K | 1339.1
358.15 K | 1334.5

CC[n+]1ccn(C)c1.O=S(=O)([N-]S(=O)(=O)C(F)(F)F)C(F)(F)F + O
x2 = 0.298
Settings | mass density [kg/m3]
308.15 K | 1490.5
318.15 K | 1480.2
323.15 K | 1475
328.15 K | 1469.9
338.15 K | 1459.8
343.15 K | 1454.7
348.15 K | 1449.3
353.15 K | 1444.7
358.15 K | 1439.5
363.15 K | 1434.3

CCn1cc[n+](CC)c1.O=S(=O)([N-]S(=O)(=O)C(F)(F)F)C(F)(F)F + O
x2 = 0.2772
Settings | mass density [kg/m3]
298.15 K | 1462.9
303.15 K | 1457.8
308.15 K | 1452.7
313.15 K | 1447.7
323.15 K | 1437.6
328.15 K | 1432.6
333.15 K | 1427.6
338.15 K | 1422.7
343.15 K | 1417.8
348.15 K | 1412.8
353.15 K | 1407.9
363.15 K | 1398.1

Cn1cc[n+](C)c1.O=S(=O)([N-]S(=O)(=O)C(F)(F)F)C(F)(F)F + O
x2 = 0.3548
Settings | mass density [kg/m3]
298.15 K | 1546.6
303.15 K | 1541.2
308.15 K | 1535.9
313.15 K | 1530.5
318.15 K | 1525.3
323.15 K | 1520
328.15 K | 1514.7
333.15 K | 1509.5
338.15 K | 1504.3
343.15 K | 1499.1
348.15 K | 1493.9
353.15 K | 1488.8
358.15 K | 1483.6
363.15 K | 1478.5
